In all, about 420,000 compounds went through this assay and about 64,000 (15%) were called active. Inconclusive results, whose numbers are uncertain, are shown with a selection of clear calls. The call rests on the fitted dose curve; in most records, active means well fitted inhibition curve with a large enough effect; inconclusive means small, poorly fitted or top-dose-only effect; inactive means flat fitted curve, though single readings scatter. No potency is given beside an inconclusive call; the fits are too rough.
Assay: qHTS for Inhibitors of human tyrosyl-DNA phosphodiesterase 1 (TDP1): qHTS in cells in absence of CPT; further: nearly all actives have a fitted effect of over 55% in size
Conditions: DT40 Tdp1-/- hTDP1 cells, no CPT, ATP luminescence, 48 h; activity change, negative = growth inhibition: at 46.2 µM (top of the series) unless noted
Outline: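 Readout: luminescence from CellTiter-Glo after 30 min in the dark at RT. Cells: DT40 Tdp1-/- with stable hTDP1, 400/well. Exposure: compounds alone, ≥48 hr, 37 °C.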
On the % scale 0 is the no-effect control and ±100 the full control effect; potency means the concentration at half of the fitted maximal effect; tags describe the fitted curve by direction and shape.

Row | SMILES | Potency | activity change, negative = growth inhibition
1 | CCCN(C(=O)c1cn(C)c(=O)c2cc(OC)c(OC)cc12)c1ccc(CC)cc1 | inconclusive [inhibitor, single point] | 
2 | CCNCCCNCCCCNCCCNCC | active: 5.31 µM | 
3 | O=c1c2sccc2nc(SCc2cc(=O)n3cc(Cl)ccc3n2)n1-c1ccc(F)cc1 | inconclusive [inhibitor, single point] | 
4 | CC(C)CCn1nnnc1C(c1ccccc1)N1CCN(C)CC1 (stereo unspecified) |  | inactive: -20.1%
5 | CCOCCc1nn2c(=O)cc(COC(=O)c3ccc(NC(=O)C4CCCCC4)cc3)nc2s1 | inconclusive [inhibitor, single point] | 
6 | Cc1ccc(N(CC(=O)NC2CCC(C)CC2)S(=O)(=O)c2cccnc2)cc1 (stereo unspecified) | inconclusive [inhibitor, single point] | 
7 | CCCCOc1ccc(NC(=O)c2cc(F)c(F)cc2Cl)cc1 | inconclusive [inhibitor, single point] | 
8 | CS(=O)(=O)Nc1cccc(-c2ccc3ncnc(N4CCNCC4)c3c2)c1 | inconclusive [inhibitor, single point] | 
9 | C=CCn1c(=O)c2ccc(C(=O)NCc3ccccc3)cc2n(Cc2ccc(Cl)cc2)c1=O | inconclusive [inhibitor, full curve, poor fit] | 
10 | O=C(Nc1ccc(Cl)cc1)C1CCC(CNS(=O)(=O)c2ccc(Br)s2)CC1 (stereo unspecified) | inconclusive [inhibitor, single point] | 
11 | COc1ccc2[nH]c(C(=O)NCCCn3ccnc3)cc2c1 |  | inactive: 1.76%
12 | Cc1cc(C)c2c(NC(=O)CCl)nn(C)c2n1 | active: 11.6 µM | 
13 | CC(C(=O)Nc1cccc([N+](=O)[O-])c1)N1CCN(C/C=C/c2ccccc2)CC1 (stereo unspecified) | inconclusive [inhibitor, single point] | 
14 | N#Cc1cccc(NC(=O)c2cc(C3CCCCN3C(=O)c3cccs3)on2)c1 (stereo unspecified) | inconclusive [inhibitor, single point] | 
15 | CCCNC(=O)c1ccccc1NC(=O)CSCc1ccc(OC)cc1 |  | inactive: -8.44%
16 | CCOC(=O)c1ccc(S(=O)(=O)N2CCN(CCC#N)CC2)cc1 |  | inactive: -25.7%
17 | Cc1ccc(Cl)cc1N1CCN(Cc2nc3c(c(=O)[nH]c(=O)n3C)n2CCc2ccccc2)CC1 | inconclusive [inhibitor, partial curve, poor fit] | 
18 | COc1ccc(-c2noc(CN(C)Cc3ccccc3)n2)cc1 | active: 18.4 µM | 
19 | COc1cc(NC(=O)c2cc3nc(C4CC4)cc(C(F)(F)F)n3n2)c(OC)cc1Cl | inconclusive [inhibitor, partial curve, poor fit] | 
20 | Clc1cc(Cl)cc(CN2CCSCC2)c1 |  | inactive: -27%
21 | Fc1ccc(Nc2ncnc3sc4c(c23)CCC4)cc1 | inconclusive [inhibitor, single point] | 
22 | NC(=O)c1cc(S(=O)(=O)N2CCCC2)ccc1OCCOc1ccccc1F |  | inactive: -2.95%
23 | Cc1ccccc1-c1nc(CN2CCC(C(=O)NCCCN3CC(C)CC(C)C3)CC2)c(C)o1 (stereo unspecified) | inconclusive [inhibitor, single point] | 
24 | CCOC(=O)CNC(=O)N1CCCC(Cc2ccccc2)(C(=O)OCC)C1 (stereo unspecified) | inconclusive [inhibitor, partial curve] | 

Row | SMILES | Potency | activity change, negative = growth inhibition
25 | CCn1c(=O)c(=O)n(CC)c2cc(S(=O)(=O)N3CCc4ccccc43)ccc21 | inconclusive [inhibitor, single point] | 
26 | COc1ccc(OC)c(NC(=O)N2CCCc3ccccc32)c1 |  | inconclusive: -30.8% [inhibitor]
27 | Cc1ccc(C(=O)N2CC(C)OC(C)C2)c(Cl)c1 (stereo unspecified) | inconclusive [inhibitor, single point] | 
28 | COc1cc(C(C)=O)ccc1OCC(=O)OCC(=O)c1cc(C)n(CC2CCCO2)c1C (stereo unspecified) |  | inactive: 9.22%
29 | O=C(c1ccco1)N1CCN(Cc2c(F)cccc2Cl)CC1 | inconclusive [inhibitor, partial curve, poor fit] | 
30 | COc1ccc(NC(=O)c2ccc3c(=O)n(-c4ccc(OC)cc4OC)c(=S)[nH]c3c2)c(OC)c1 | active: 20.6 µM | 
31 | C(=N\Nc1nc2ccccc2[nH]1)/c1ccc2c(c1)OCCO2 | inconclusive [inhibitor, single point] | 
32 | OC(c1cccc(Cl)c1)c1nc(-c2ccoc2)cs1 (stereo unspecified) | inconclusive [inhibitor, single point] | 
33 | C=CCN1c2ccccc2[C@]23C[C@@H](C(=O)OC)N(C(=O)CC(C)C)C2=NC(C(=O)OC)=C(C(=O)OC)[C@H]13 | inconclusive [inhibitor, single point] | 
34 | Cc1cc(C2=CC(=O)C[C@H](c3ccc(F)cc3)C2)ccc1F | inconclusive [inhibitor, single point] | 
35 | COc1ccccc1-c1c(C)oc2c(CN3CCCCC3C)c(O)ccc2c1=O (stereo unspecified) |  | inactive: 12.8%
36 | COc1cc(NC(=O)COC(=O)c2ccc(S(=O)(=O)N3CC(C)CC(C)C3)cc2)c(C)cc1[N+](=O)[O-] (stereo unspecified) | inconclusive [inhibitor, full curve, poor fit] | 
37 | CSCCC(NC(=O)c1ccco1)C(=O)NCCc1ccc(Cl)cc1 (stereo unspecified) |  | inactive: 6.73%
38 | O=S(=O)(NCC(O)COCc1ccco1)c1cccs1 (stereo unspecified) |  | inactive: -16.5%
39 | CCNc1nc(Oc2ccc(C#N)cc2)cc(C(F)(F)F)n1 | inconclusive [inhibitor, single point] | 
40 | COc1ccccc1-n1cc(CN2CCc3onc(-c4ccc(Br)cc4)c3C2=O)nn1 | inconclusive [inhibitor, single point] | 
41 | Cc1ccc(NC(=O)C2CCN(S(=O)(=O)c3ccc4c(c3)CC(C)N4C(=O)C3CCC3)CC2)nc1 (stereo unspecified) | inconclusive [inhibitor, single point] | 
42 | CCOC(=O)C1CCN(S(=O)(=O)c2cn(C)c(C)n2)CC1 |  | inactive: 24%
43 | CCN(CC)C(=O)NC1CC2CCCC(C1)N2Cc1ccccc1 (stereo unspecified) |  | inactive: -5.1%
44 | Cc1ccccc1-c1cc2nc(NCc3ccccc3)n(C)c(=O)c2s1 | inconclusive [inhibitor, partial curve, poor fit] | 
45 | O=C(c1cccc(N2C(=O)C3C4C=CC(C4)C3C2=O)c1)N1CCN(c2ccc(F)cc2)CC1 (stereo unspecified) | inconclusive [inhibitor, single point] | 
46 | COc1ccc(-c2csc(/C=C/c3ccc4c(c3)OCO4)n2)cc1OC | inconclusive [inhibitor, single point] | 
47 | CCO[C@H]1OC(C(=O)NCc2ccccc2)=C[C@@H](c2coc3ccccc3c2=O)[C@@H]1CCCO | active: 9.2 µM | 
48 | COc1ccc(CNC(=O)c2cc(Nc3ccccc3C)nc3ccccc23)cc1 | inconclusive [inhibitor, single point] | 

Row | SMILES | Potency | activity change, negative = growth inhibition
49 | O=[N+]([O-])c1ccc(N2CCN(c3ccc(F)cc3)CC2)cc1 |  | inactive: -12.5%
50 | O=C1CC2(CCN(C(=O)c3ccccc3Cl)CC2)Oc2ccccc21 | inconclusive [inhibitor, partial curve, poor fit] | 
51 | CCCCCCCCCCC/C=C\C/C=C\CCCC(=O)O |  | inactive: 7.06% [at 4.12 µM]
52 | O=Cc1c[nH]c2ccc(NC(=O)OCc3ccccc3)cc12 | inconclusive [inhibitor, partial curve] | 
53 | CN(C)CCC(C(=O)c1ccccc1)c1ccncc1 (stereo unspecified) |  | inactive: -10.5%
54 | COc1cccc(N2C(=O)CN(Cc3cc(OC)c(OC)c(OC)c3)C2=S)c1 | active: 20.6 µM | 
55 | CCN(CC)c1ccc(CNCCCSc2nnnn2C)cc1 | inconclusive [inhibitor, single point] | 
56 | CCN(C(=O)c1ccc(NC(=O)C2CCCCC2C(=O)O)cc1)c1ccccc1 (stereo unspecified) |  | inactive: -3.03%
57 | CCN1C[C@@H]2[C@@H]3C(=O)N(Cc4ccccc4)C(=O)[C@@H]3[C@](C)(C1=O)N2C(=O)c1ccc(F)cc1 |  | inactive: 6.93%
58 | C#Cc1ccc(CN2CCCC(C(=O)Nc3ccccc3Oc3cccnc3)C2)cc1 (stereo unspecified) | inconclusive [inhibitor, single point] | 
59 | Cc1ccc(NS(=O)(=O)c2cc3c(cc2C)NC(=O)CO3)cc1 | inconclusive [inhibitor, single point] | 
60 | CCOc1ccc(CN2C(=O)c3ccccc3Sc3ccc(C(=O)NCc4ccco4)cc32)cc1 |  | inactive: -23.9%
61 | COc1ccc(C(=O)N2CCC3(CCCN(c4ccc(-c5ccccc5)cc4)C3)CC2)cc1 | inconclusive [inhibitor, single point] | 
62 | CC(Nc1nc(-c2ccc(F)cc2)cs1)c1nc2cc(C(F)(F)F)ccc2n1CCCO (stereo unspecified) | active: 16.4 µM | 
63 | CN(CCC#N)C(=O)COC(=O)c1cccnc1Nc1ccccc1F |  | inactive: 8.04%
64 | CC(C)(C)S(=O)(=O)/C(C#N)=N/Nc1ccc(S(N)(=O)=O)cc1 |  | inactive: -9.73%
65 | COCCNc1nc2c(c(=O)n(C)c(=O)n2C)n1Cc1c(F)cccc1Cl | active: 2.59 µM | 
66 | COc1ccc(C2=CC(=O)OC3(CCCCC3)O2)cc1 | inconclusive [inhibitor, single point] | 
67 | Cc1cc2cc(CNC(=O)c3ccc(S(=O)(=O)N4CCCCC4)cc3)ccc2[nH]1 | inconclusive [inhibitor, single point] | 
68 | Cc1oc2c(C)c(O)ccc2c(=O)c1-c1nncn1-c1ccccc1 |  | inactive: -9.44%
69 | CC(C)(C)c1ccc(CC(=O)N2CCC2(C)C(=O)NS(=O)(=O)c2cccs2)cc1 (stereo unspecified) |  | inactive: 3.31%
70 | O=c1n(Cc2ccccc2Cl)c2ccccc2c2nc(-c3ccccc3)nn12 |  | inactive: -18.7%
71 | COc1cc(C)nc(N2CCCC(C(=O)Nc3cccc(Cl)c3C)C2)n1 (stereo unspecified) | inconclusive [inhibitor, single point] | 

— PubChem BioAssay AID686978 (National Center for Advancing Translational Sciences (NCATS), 2013)
